In article PMC12578172, “Structure and function of Full-length Tau” (PLOS One, 2025):

Target: the molecule itself
Experiment: co-sedimentation; self-aggregation: 40 μM Tau isoform in 0.1 M NaCl, 20 mM ammonium acetate, 1.5 mM CaCl2, pH 7.0, with 10 μM heparin, 12 h at 37 °C; aggregates isolated by centrifugation, supernatant and pellet blotted with HT7; also electron microscopy

B1: Full-length Tau isoform (Full Tau), containing all exons of the MAPT gene (natural protein)
chain: not shown
notes: human Tau isoform with all coding exons (+2, +3, +4A, +6, +8, +10), 776 amino acids, vector pRK-FullTau (synthetic cDNA, GenScript); No tag is mentioned; also called Full human Tau; MAPT-205; source: E. coli BL21, purified (boiling, ammonium sulfate precipitation, dialysis)
  binding result: binds
